Assay results from the supplement of paper PMC8728848.
This is one part of the list.

Assays:
Assay in all cases: glycan array binding signal (z-score within array); higher = stronger binding
Conditions in all cases: glycan notation: IUPAC condensed, linker removed
[1] = target: Gal(b1-3)GlcNAc(b1-6)Gal(b1-4)GlcNAc
In short: (§1)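 The binding signal is a Z-score computed within each array. Data were drawn from 3228 arrays in the Consortium for Functional Glycomics database, restricted to those with a known protein sequence. Scores were averaged over arrays of the same protein sequence at different concentrations or buffers, and over linkers, and negative values can be taken as non-binding.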

[2] = target: Gal(b1-3)GlcNAc(b1-6)GalNAc
In short: as §1

[3] = target: Gal(b1-3)GlcNAc(b1-6)[Gal(b1-3)]GalNAc
In short: as §1

Gal(b1-3)GlcNAc6S = target: Gal(b1-3)GlcNAc6S
In short: as §1

[4] = target: Gal(b1-3)[Fuc(a1-4)]GlcNAc
In short: as §1

[5] = target: Gal(b1-3)[Fuc(a1-4)]GlcNAc(b1-2)Man
In short: as §1

[6] = target: Gal(b1-3)[Fuc(a1-4)]GlcNAc(b1-2)Man(a1-3)[Gal(b1-3)[Fuc(a1-4)]GlcNAc(b1-2)Man(a1-6)]Man(b1-4)GlcNAc(b1-4)[Fuc(a1-6)]GlcNAc
In short: as §1

[7] = target: Gal(b1-3)[Fuc(a1-4)]GlcNAc(b1-3)Gal(b1-3)[Fuc(a1-4)]GlcNAc
In short: as §1

[8] = target: Gal(b1-3)[Fuc(a1-4)]GlcNAc(b1-3)Gal(b1-4)GlcNAc
In short: as §1

[9] = target: Gal(b1-3)[Fuc(a1-4)]GlcNAc(b1-3)Gal(b1-4)[Fuc(a1-3)]GlcNAc
In short: as §1

[10] = target: Gal(b1-3)[Fuc(a1-4)]GlcNAc(b1-6)GalNAc
In short: as §1

[11] = target: Gal(b1-3)[GlcNAc(b1-6)]GalNAc
In short: as §1

[12] = target: Gal(b1-3)[GlcNAc(b1-6)]GlcNAc
In short: as §1

[13] = target: Gal(b1-3)[Neu5Ac(a2-6)]GalNAc
In short: as §1

[14] = target: Gal(b1-3)[Neu5Ac(a2-6)]GlcNAc
In short: as §1

[15] = target: Gal(b1-3)[Neu5Ac(a2-6)]GlcNAc(a1-4)Gal(b1-4)Glc
In short: as §1

[16] = target: Gal(b1-3)[Neu5Ac(a2-6)]GlcNAc(b1-4)Gal(b1-4)Glc
In short: as §1

[17] = target: Gal(b1-3)[Neu5Ac(b2-6)]GalNAc
In short: as §1

[18] = target: Gal(b1-3)[Neu5Ac(b2-6)]GlcNAc
In short: as §1

Gal(b1-4)Gal = target: Gal(b1-4)Gal
In short: as §1

[19] = target: Gal(b1-4)GalNAc(a1-3)[Fuc(a1-2)]Gal(b1-4)GlcNAc
In short: as §1

[20] = target: Gal(b1-4)GalNAc(b1-3)[Fuc(a1-2)]Gal(b1-4)GlcNAc
In short: as §1

Gal(b1-4)Glc = target: Gal(b1-4)Glc
In short: as §1

Gal(b1-4)Glc6S = target: Gal(b1-4)Glc6S
In short: as §1

Gal(b1-4)GlcNAc = target: Gal(b1-4)GlcNAc
In short: as §1

[21] = target: Gal(b1-4)GlcNAc(a1-6)Gal(b1-4)GlcNAc
In short: as §1

Gal(b1-4)GlcNAc(b1-2)Man = target: Gal(b1-4)GlcNAc(b1-2)Man
In short: as §1

[22] = target: Gal(b1-4)GlcNAc(b1-2)Man(a1-3)Man(b1-4)GlcNAc(b1-4)GlcNAc
In short: as §1

[23] = target: Gal(b1-4)GlcNAc(b1-2)Man(a1-3)[Gal(b1-4)GlcNAc(b1-2)Man(a1-6)]Man(b1-4)GlcNAc(b1-4)GlcNAc
In short: as §1

[24] = target: Gal(b1-4)GlcNAc(b1-2)Man(a1-3)[Gal(b1-4)GlcNAc(b1-2)Man(a1-6)]Man(b1-4)GlcNAc(b1-4)[Fuc(a1-6)]GlcNAc
In short: as §1

[25] = target: Gal(b1-4)GlcNAc(b1-2)Man(a1-3)[Gal(b1-4)GlcNAc(b1-2)Man(a1-6)][Gal(b1-4)GlcNAc(b1-4)]Man(b1-4)GlcNAc(b1-4)[Fuc(a1-6)]GlcNAc
In short: as §1

[26] = target: Gal(b1-4)GlcNAc(b1-2)Man(a1-3)[Gal(b1-4)GlcNAc(b1-2)Man(a1-6)][GlcNAc(b1-4)]Man(b1-4)GlcNAc(b1-4)[Fuc(a1-6)]GlcNAc
In short: as §1

[27] = target: Gal(b1-4)GlcNAc(b1-2)Man(a1-3)[GlcNAc(b1-2)Man(a1-6)]Man(b1-4)GlcNAc(b1-4)GlcNAc
In short: as §1

[28] = target: Gal(b1-4)GlcNAc(b1-2)Man(a1-3)[GlcNAc(b1-4)][Gal(b1-4)GlcNAc(b1-2)Man(a1-6)]Man(b1-4)GlcNAc(b1-4)GlcNAc
In short: as §1

[29] = target: Gal(b1-4)GlcNAc(b1-2)Man(a1-3)[Man(a1-6)]Man(b1-4)GlcNAc(b1-4)GlcNAc
In short: as §1

[30] = target: Gal(b1-4)GlcNAc(b1-2)Man(a1-6)Man(b1-4)GlcNAc(b1-4)GlcNAc
In short: as §1

[31] = target: Gal(b1-4)GlcNAc(b1-2)Man(a1-6)[GlcNAc(b1-2)Man(a1-3)]Man(b1-4)GlcNAc(b1-4)GlcNAc
In short: as §1

[32] = target: Gal(b1-4)GlcNAc(b1-2)Man(a1-6)[Man(a1-3)]Man(b1-4)GlcNAc(b1-4)GlcNAc
In short: as §1

[33] = target: Gal(b1-4)GlcNAc(b1-2)[Gal(b1-4)GlcNAc(b1-4)]Man(a1-3)[Gal(b1-4)GlcNAc(b1-2)Man(a1-6)]Man(b1-4)GlcNAc(b1-4)GlcNAc
In short: as §1

[34] = target: Gal(b1-4)GlcNAc(b1-2)[Gal(b1-4)GlcNAc(b1-4)]Man(a1-3)[Gal(b1-4)GlcNAc(b1-2)[Gal(b1-4)GlcNAc(b1-6)]Man(a1-6)]Man(b1-4)GlcNAc(b1-4)GlcNAc
In short: as §1

[35] = target: Gal(b1-4)GlcNAc(b1-2)[Gal(b1-4)GlcNAc(b1-4)]Man(a1-3)[GlcNAc(b1-4)][Gal(b1-4)GlcNAc(b1-2)Man(a1-6)]Man(b1-4)GlcNAc(b1-4)GlcNAc
In short: as §1

[36] = target: Gal(b1-4)GlcNAc(b1-2)[Gal(b1-4)GlcNAc(b1-4)]Man(a1-3)[GlcNAc(b1-4)][Gal(b1-4)GlcNAc(b1-2)[Gal(b1-4)GlcNAc(b1-6)]Man(a1-6)]Man(b1-4)GlcNAc(b1-4)GlcNAc
In short: as §1

[37] = target: Gal(b1-4)GlcNAc(b1-2)[Gal(b1-4)GlcNAc(b1-6)]Man(a1-6)[Gal(b1-4)GlcNAc(b1-2)Man(a1-3)]Man(b1-4)GlcNAc(b1-4)GlcNAc
In short: as §1

[38] = target: Gal(b1-4)GlcNAc(b1-2)[Gal(b1-4)GlcNAc(b1-6)]Man(a1-6)[Gal(b1-4)GlcNAc(b1-2)Man(a1-3)]Man(b1-4)GlcNAc(b1-4)[Fuc(a1-6)]GlcNAc
In short: as §1

[39] = target: Gal(b1-4)GlcNAc(b1-2)[Gal(b1-4)GlcNAc(b1-6)]Man(a1-6)[GlcNAc(b1-4)][Gal(b1-4)GlcNAc(b1-2)Man(a1-3)]Man(b1-4)GlcNAc(b1-4)GlcNAc
In short: as §1

B1: AAA (Anguilla anguilla), Q7SIC1 (protein)
chain: VIPEGYTQENVAVRGKATQSAQLRGEHAANSEASNAIDGNRDSNFYHGSCTHSSGQANPWWRVDLLQVYTITSVTITNRGDCCGERISGAEINIGQHLASNGVNNPECSVIGSMATGETKTFHCPAPMIGRYVVTYLPTSESLHLCEVEVNVDKPAAA
[1]
  glycan array binding signal (z-score): -0.196
[2]
  glycan array binding signal (z-score): -0.239
[3]
  glycan array binding signal (z-score): -0.275
Gal(b1-3)GlcNAc6S
  glycan array binding signal (z-score): -0.306
[4]
  glycan array binding signal (z-score): -0.126
[5]
  glycan array binding signal (z-score): -0.089
[6]
  glycan array binding signal (z-score): 0.182
[7]
  glycan array binding signal (z-score): 0.164
[8]
  glycan array binding signal (z-score): -0.092
[9]
  glycan array binding signal (z-score): -0.281
[10]
  glycan array binding signal (z-score): -0.081
[11]
  glycan array binding signal (z-score): 0.146
[12]
  glycan array binding signal (z-score): -0.011
[13]
  glycan array binding signal (z-score): -0.106
[14]
  glycan array binding signal (z-score): -0.743
[15]
  glycan array binding signal (z-score): -0.329
[16]
  glycan array binding signal (z-score): -0.118
[17]
  glycan array binding signal (z-score): -0.242
[18]
  glycan array binding signal (z-score): -0.171
Gal(b1-4)Gal
  glycan array binding signal (z-score): -0.226
[19]
  glycan array binding signal (z-score): -0.218
[20]
  glycan array binding signal (z-score): -0.22
Gal(b1-4)Glc
  glycan array binding signal (z-score): -0.282
Gal(b1-4)Glc6S
  glycan array binding signal (z-score): 0.091
Gal(b1-4)GlcNAc
  glycan array binding signal (z-score): -0.211
[21]
  glycan array binding signal (z-score): -0.212
Gal(b1-4)GlcNAc(b1-2)Man
  glycan array binding signal (z-score): -0.202
[22]
  glycan array binding signal (z-score): -0.213
[23]
  glycan array binding signal (z-score): -0.354
[24]
  glycan array binding signal (z-score): -0.099
[25]
  glycan array binding signal (z-score): -0.155
[26]
  glycan array binding signal (z-score): -0.269
[27]
  glycan array binding signal (z-score): -0.086
[28]
  glycan array binding signal (z-score): -0.238
[29]
  glycan array binding signal (z-score): -0.137
[30]
  glycan array binding signal (z-score): -0.168
[31]
  glycan array binding signal (z-score): -0.24
[32]
  glycan array binding signal (z-score): -0.182
[33]
  glycan array binding signal (z-score): -0.16
[34]
  glycan array binding signal (z-score): -0.191
[35]
  glycan array binding signal (z-score): -0.275
[36]
  glycan array binding signal (z-score): -0.276
[37]
  glycan array binding signal (z-score): -0.402
[38]
  glycan array binding signal (z-score): -0.181
[39]
  glycan array binding signal (z-score): -0.252
